The list shows a part of the results.
Tested on: T1, Caupolican (Caup) homeodomain DNA-binding domain
T1 sequence: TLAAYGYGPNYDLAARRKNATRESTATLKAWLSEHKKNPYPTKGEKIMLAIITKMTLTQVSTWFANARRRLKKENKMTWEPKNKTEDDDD
Test: PBM E-score (8-mer, recovered from the published 9-mer minima) (E-score (dimensionless, -0.5 to 0.5)); Drosophila protein; higher = stronger relative binding preference, active = 0.31 or more
Outline: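 An enrichment score, with higher meaning stronger, expresses relative binding preference for each short DNA word. The protein used was Caup's homeodomain DNA-binding domain (residues 214-303), produced by in vitro transcription and translation and tested at 100 nM on custom-designed protein binding microarrays. The 8-mer values were recovered from published 9-mer scores, each equal to the lower of its two constituent 8-mer scores.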

Sequence | PBM E-score
AGTGTAAA | inactive: 0.13
TATCTCGA | inactive: 0.00943
CAGTATGC | inactive: -0.0186
GGTATGCA | inactive: 0.0241
CGGTATAC | inactive: 0.00102
GTGCCAGA | inactive: -0.0996
GGGATTGA | inactive: -0.0471
CGGGGGGC | inactive: -0.409
CACGTGTC | inactive: 0.266
GGGCCCAA | inactive: -0.203
ACTCCAAC | inactive: -0.0333
ACTCTAAT | inactive: 0.0481
GATCCTCC | inactive: -0.123
GCAGCAAA | inactive: -0.0553
AGTTTTGA | inactive: 0.0657
AAATCTAA | inactive: 0.0434
GGGCCACC | inactive: -0.313
GCCTGAAC | inactive: -0.161
CCCTACGC | inactive: -0.145
CCCCACCC | inactive: -0.196
CTTCAGAA | inactive: 0.00974
GCTATAAC | inactive: 0.0192
AGGAAGGC | inactive: -0.183
ATGTAACA | active: 0.429
AAAGGAAA | inactive: 0.0116

Sequence | PBM E-score
CTCGGCGA | inactive: -0.115
GTGTTTCA | inactive: 0.157
ACCTTCGG | inactive: -0.111
CAATGTCC | inactive: 0.126
ATCAGCCC | inactive: -0.0797
CCATATTC | inactive: 0.011
AACTGGGT | inactive: -0.0436
CTATTAGC | inactive: 0.0355
ACGATTTG | inactive: 0.11
AAATGCCC | inactive: -0.095
ACCTTCCG | ≥ -0.0159
CGTCTGAA | inactive: -0.00988
ATAGCCAA | inactive: -0.0193
GCGGTGCA | inactive: -0.164
AATGAGTA | inactive: 0.114
ATTAAATG | inactive: 0.178
CTGTACCC | inactive: 0.0319
GGTAAAGA | inactive: -0.00885
CTGGCTTA | inactive: -0.0641
GGTTCGCA | inactive: -0.153
AATTTTAA | inactive: 0.00507
GCTTGGGA | inactive: -0.133
ACATCCGG | inactive: 0.104
CGGACGCC | inactive: -0.273
ATCAGCAG | inactive: 0.0216

Sequence | PBM E-score
AGGAGCCT | inactive: -0.198
CACTGGAG | inactive: -0.159
ACAGCGTC | inactive: 0.0446
GGATGGAA | inactive: -0.076
AATGGCCT | inactive: -0.108
TAAGTACA | active: 0.332
GGGTCCAA | inactive: -0.0464
CGGACCTA | inactive: -8e-05
GGAATAAA | inactive: 0.103
ATCATAAA | ≥ 0.216
TTCCGAAA | inactive: 0.094
CCAAGTTA | inactive: 0.0407
ATTTAATC | inactive: 0.0796
CAGGAATA | inactive: 0.104
GGTCCGTA | inactive: -0.0633
CATTTTCA | inactive: 0.103
ACACTCCC | inactive: -0.0391
GAGTAGCA | inactive: -0.029
CAAGCCAA | inactive: 0.0502
ATAGACTC | inactive: -0.0161
CAACCTTA | inactive: 0.0881
CTTAATTA | inactive: 0.143
CAGACTAC | inactive: 0.0814
CGTTCCAC | inactive: -0.0743
ACACAGCG | inactive: 0.178

Sequence | PBM E-score
AGGCCTGG | inactive: -0.126
TAGTCCAA | inactive: 0.0286
GTGATGGA | inactive: 0.00106
TCCGTGCA | inactive: 0.0189
ACATACGA | ≥ 0.289
ACATCGTA | inactive: 0.241
AGTACTGG | inactive: -0.00493
ATGTTTGC | inactive: 0.224
TCGTTCCA | inactive: 0.0144
ATTAAAGA | inactive: 0.0678
ACCGAGCG | inactive: -0.0495
ACTACTCA | ≥ 0.116
ACGTACGT | ≥ 0.0832
CGGCCTAG | inactive: -0.296
CTAAAACC | inactive: -0.0346
AAAGGCAC | inactive: -0.0852
ACAGCACG | inactive: 0.0526
CGCGTCGA | inactive: 0.00461
AACACCAA | inactive: 0.231
AGTACAAG | active: 0.416
ATACAACG | inactive: 0.283
ATCATTTC | inactive: 0.0386
GATGCACC | inactive: -0.033
AGGACTAG | inactive: 0.0628
ACTGCTTC | inactive: -0.165

Sequence | PBM E-score
CTAACCAC | inactive: 0.0967
GATTGCCC | inactive: -0.0856
CGTTTGTC | inactive: 0.0653
CAAGAAGG | inactive: -0.0209
AATGTTCA | inactive: 0.244
GTCCGTGA | inactive: 0.0381
CGTCAAGC | inactive: -0.141
AGACTGAT | inactive: 0.0435
GGTCGGTA | inactive: -0.0686
CGGGGGCC | inactive: -0.308
CACTCTGC | inactive: -0.033
GCAGTATA | inactive: -0.0375
TCGGCTCA | inactive: -0.131
GCCATGGA | inactive: -0.137
GAGTACGA | inactive: 0.0431
AACATGAC | active: 0.42
ACCTGGCT | inactive: -0.126
CGTCGCGA | inactive: -0.0662
CTAGCGAC | inactive: -0.0181
AATCCCAG | inactive: -0.0508
GTGCCCTA | inactive: -0.0962
GTCGCTTA | inactive: 0.0465
TATCGGAA | inactive: 0.0409
AGTCCATC | inactive: 0.00442
CCGTATAG | inactive: -0.0272

Sequence | PBM E-score
GTCTTTAA | inactive: 0.0822
CCAGTACG | inactive: -0.0139
AGACATAA | inactive: 0.217
GCAGAAGA | inactive: -0.113
ATTTTATG | inactive: 0.146
CTACGTGC | inactive: -0.0769
AGTTAAGG | inactive: -0.0195
AGTCTGAG | inactive: -0.0717
ATCGCGGG | inactive: -0.113
TAGGAATA | inactive: 0.0829
CTATTTAA | inactive: -0.0109
ACTGCTCG | inactive: 0.0439
ACATAGCA | ≥ 0.283
TCGAGAAA | inactive: 0.0176
AGGGAAGC | inactive: -0.189
AGTCAGGA | inactive: -0.073
CCTTCCCG | inactive: -0.177
GAAGGCCC | inactive: -0.266
CTGCCAAG | inactive: -0.0659
AGAAAAAG | inactive: -0.12
GCGGGGAA | inactive: -0.089
CGGGCCGA | inactive: -0.212
GGTTGTAA | active: 0.333
TTCAAGAA | inactive: 0.0713
CCGAATGC | inactive: -0.0958

Sequence | PBM E-score
TCCTAGCA | inactive: 0.0469
AAAATTGT | ≥ 0.221
CTATGCAG | inactive: 0.0159
ACAAGATC | inactive: 0.258
AAGAGGAT | ≥ 0.0662
AACCTACA | inactive: 0.211
CACCTAGA | inactive: -0.0016
TACTCGGA | ≥ 0.0722
GAGGGCAA | inactive: -0.125
TACTGGCA | inactive: -0.0449
CTTACGAA | inactive: 0.0281
ATGCGACG | inactive: -0.0301
AGTCATTC | inactive: 0.0954
AGGAACAC | inactive: 0.193
ACGCAGCG | inactive: -0.141
CAGCCCGA | inactive: -0.199
AGGTAGTA | inactive: 0.143
ACGCGGCC | inactive: -0.162
CGGAAGGC | inactive: -0.315
ATAAGAGC | inactive: -0.0159
GAAGACCA | inactive: -0.126
GAGTAGAA | inactive: 0.00839
ATTCATCA | inactive: 0.113
ACAGCCAG | inactive: 0.0232
ACTCTTCC | inactive: -0.0373

Sequence | PBM E-score
CGATGGAA | inactive: -0.0358
AACACTGG | inactive: 0.125
TCTAAACA | inactive: 0.191
AGCCGTAA | inactive: -0.0484
CCTGCTAA | inactive: -0.139
GCGCACCA | inactive: -0.0965
GAGCAGCC | inactive: -0.0103
GTATGTCA | active: 0.345
CGCATGCA | inactive: 0.025
AGGCCGTA | inactive: -0.041
AGTAATAA | inactive: 0.186
ACTAAGAG | inactive: -0.0163
AGCGGTGA | inactive: -0.113
CAGAACAG | inactive: 0.0845
GATTTCGA | inactive: -0.0262
GAAATGCC | inactive: -0.0434
AGAAAGAC | inactive: -0.0431
CCCCAACC | inactive: -0.122
GGACGTCC | inactive: -0.158
AATAGTGC | inactive: -0.0386
CAGTACAC | inactive: 0.288
CATAAGTC | inactive: 0.0202
CTACATCC | inactive: 0.189
CCCGGGAG | inactive: -0.242
GACCAATC | inactive: -0.0206

Sequence | PBM E-score
ACTGCTCT | inactive: -0.0664
GTACTGCA | inactive: 0.125
GTGTCAGA | inactive: 0.245
GTTGAGAA | inactive: -0.0618
ATTAACGG | inactive: 0.0134
ATGGCCTA | inactive: -0.0812
AGGGGGTC | inactive: -0.29
TCCCTGCA | inactive: -0.0684
GACGTGCC | inactive: -0.117
CAGGTCGA | inactive: 0.00523
ACGAAACC | inactive: 0.0811
AAGACTGT | inactive: -0.00912
AAGTTGAG | inactive: -0.0111
GGATTCGA | inactive: 0.0364
AACTCGTC | ≥ 0.126
ACTTCTCG | inactive: -0.0017
CACTCAGC | inactive: -0.108
AGAAAAAA | inactive: 0.0119
ATCCTTGG | inactive: -0.0733
CCATTTAA | inactive: 0.0674
AATTCGAG | inactive: -0.0149
GCACCGAA | inactive: -0.0211
AAGTGATG | inactive: 0.113

— the supplement of paper PMC3724861
